We go through 22 molecules from paper PMC12136788.

T1: UNK ZnF1-3 (human, UniProt Q9C0B0 31-174)
T1 sequence: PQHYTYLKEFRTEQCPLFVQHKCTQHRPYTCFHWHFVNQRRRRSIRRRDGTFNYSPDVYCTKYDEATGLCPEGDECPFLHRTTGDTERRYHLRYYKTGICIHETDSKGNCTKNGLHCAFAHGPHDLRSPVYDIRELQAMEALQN

B1: 93070052_93071552_624_CDS_ENSMUSG00000020964_ENSMUST00000021347|mouse|control|control (ssRNA)
RNA: GGGAGUUCUACAGUCCGACGAUCCCCGGCCUGAUAGAUCAUCUCUGCUUCCUGCAUCUGUCGUCUUUUGGCAGCAUCUUCUUCAGUUUCGCAGAAGCCCCACUUCUCAUCUGUCUUGUAGUCAUAGGUUGUGGCACACCACAGCAACAGAGGAUUGAGCAUCA
B2: chr4:48249827:48249828:-_ENSMUSG00000028343_ENSMUST00000030028|mus_hu|FALSE|FALSE (ssRNA)
RNA: GGGAGUUCUACAGUCCGACGAUCCUCAAAAAUUGGAUGCAACAUCUGACUGAAACGACACCAGUCAGCAUAAAAAUUUACUAAAGCAACAUCAGCAUUGUUUAAAAUUUCAUCUAUAUUCUCUGUAUCAAGACUUGUUAUUUCCAACAGAGGAUUGAGCAUCA
B3: chr11:106117246:106117247:-_ENSMUSG00000020706_ENSMUST00000021048|mus_hu|FALSE|FALSE (ssRNA)
RNA: GGGAGUUCUACAGUCCGACGAUCUUUGUAAGUUGAAAGUUGAGACUAGGAAGGCAUAUCACAAGAACUAUAAACAGAGUUUCAAUGAGGCAACACUGAGGAGGAGUUCUACUCCUUCCUCAUCCCCUUCCAAAGCCCCUGAACCAACAGAGGAUUGAGCAUCA
B4: 113440550_113440670_831_3pUTR_ENSG00000121579_ENST00000240922|human|control|control (ssRNA)
RNA: GGGAGUUCUACAGUCCGACGAUCGGGCCUCUCUUUUAUUUGGCGACAAGCAAGUGCAAGAAAGUUCAUUUGUAAUUUGUUCAGUUGUCUGUCUUUUGCACAUCUGCAUUCUGACCAGAAGGAACUUUGAGGUUUUUCUGCAGCCAACAGAGGAUUGAGCAUCA
B5: chr11:69650846:69650847:-_ENSMUSG00000051790_ENSMUST00000108634|mus_hu|FALSE|FALSE (ssRNA)
RNA: GGGAGUUCUACAGUCCGACGAUCGAACCCCGCAGUAGGGACGAUAGAGAAAGGAGGGGGCAACGGGACAGGACUAGAUUGAGGAUCCGCUGGUUCCGUGGGCCGGCUUCGAGGGACCAGAAGGCGGUCCAGGCGGAGGAUCCUCAACAGAGGAUUGAGCAUCA
B6: chr5:80785125:80785126:-_ENSG00000145687_ENST00000509013|hu_mus|FALSE|FALSE (ssRNA)
RNA: GGGAGUUCUACAGUCCGACGAUCGGCCGCCAGGGUACCGAGGCGACAUAAAAGGCUGAAAGAACCCUGGUGGCACGGGACCUACUGGCAUGCCAUCUCCUGGGGGCAUGUUUCCUAGCACGGGGCUGGGAGCUGCUGCAGCACCAACAGAGGAUUGAGCAUCA
B7: chr4:76721835:76721836:+_ENSG00000138768_ENST00000264904|hu_mus|hu_hu_hu_mus_True|18_108 (ssRNA)
RNA: GGGAGUUCUACAGUCCGACGAUCGUUGGCUGGGGUUUUCUGAGACGCUCUGGAAUAUAACUCAUGUUUGCUAAUAAAUCCUAGUUUCUCUAUGAAAUUCUCUUUGCCAAUCCUCUUUCAAUCAGUUUGCUUUAGUUUCUCUUUCAACAGAGGAUUGAGCAUCA
B8: chr2:160604868:160604869:+_ENSG00000136536_ENST00000409591|perfect_dup|FALSE|FALSE (ssRNA)
RNA: GGGAGUUCUACAGUCCGACGAUCUGAAUCUGACUCAGAGCUAUGAUUGUGGCUAAGAGAUGACAAACCCCAUCUUCGCCUAAGAAAUCGAAAUCCCUGAGAAGCUUCAGAUGCCCUAUUAUCGGGAACUUCAGAAGCUGAUGGCAACAGAGGAUUGAGCAUCA
B9: chr7:156476592:156476593:-_ENSG00000105983_ENST00000359422|hu_mus|FALSE|FALSE (ssRNA)
RNA: GGGAGUUCUACAGUCCGACGAUCCUAUAGACACACAGCUUUUCCUCAGUCUCAAGACUCAGGGUUUAACCAAAAGCUGUCAUAUCCGGCCAAUCAGAAAACUCCCAGGAGACACAGAUGACUAGUGCUAAGUUGUAAGUGCUUCAACAGAGGAUUGAGCAUCA
B10: chr3:139236485:139236486:-_ENSG00000114115_ENST00000232219|hu_hu|FALSE|FALSE (ssRNA)
RNA: GGGAGUUCUACAGUCCGACGAUCUCCUGCUGAUUCCUUGGGACAAGGUUGUCUGCCUGGGCCUCACUGCACCUUCUUGAAUACUUGCUUGCAGACCACACCUUCCACUCUCAUCUCCAGGUGCAGCUCAUCACCCUCGAUCCACAACAGAGGAUUGAGCAUCA
B11: chr7:151622947:151622948:-_ENSMUSG00000031078_ENSMUST00000033407|mus_hu|FALSE|FALSE (ssRNA)
RNA: GGGAGUUCUACAGUCCGACGAUCGAAGAGCCCGUACCGGCCCUUGCACACCCCGCGCCACCAGCCGUCGUCAAUCAUCUCGAUGUUGGUGAUGAUGUCAUCAGGGUCAAAUGAGAUCUCAUCAUCGCCCGCAGCCUGGUAGUCCAACAGAGGAUUGAGCAUCA
B12: chr3:47957716:47957717:-_ENSG00000047849_ENST00000395734|hu_hu|motif|central (ssRNA)
RNA: GGGAGUUCUACAGUCCGACGAUCAUCCUCAGUCAGGGCCACCUCCAUUUCUGGAGGCAGACAUACGUUCUUGAUGAGAACGGCUUCUGUUUCUGGAGGUGGAGUCACAUCCUUGCCCAGAGCCAUUUCUGUUUCUGAUAGUGGCAACAGAGGAUUGAGCAUCA
B13: chr11:69466514:69466515:+_ENSG00000110092_ENST00000227507|hu_hu|motif|central (ssRNA)
RNA: GGGAGUUCUACAGUCCGACGAUCAUAUGUUUUUCUACCUAAAACCCUCUUCUACUUUAAAAAUGGUUUGCUGAAUUUUUCGGUGUUUUUAAAAUGUUUUUAUGCUUUUUUUUAAACACGUAAAGGAUGGAACCUAAUCCUCUCCAACAGAGGAUUGAGCAUCA
B14: chr2:179763710:179763711:+_ENSMUSG00000039108_ENSMUST00000058764|mus_hu|motif|central (ssRNA)
RNA: GGGAGUUCUACAGUCCGACGAUCCUGCUGUGGCUCUGAGGACAAGUCAAGCUCUGAAACGGGCUGUGGAGAUGGAGAAGAGCGGGGGCUGGAAGCAGCGGCUGAGGCUGGAGGGCUUACCAACUUCUCUAGACCCAGGGAGGCCAACAGAGGAUUGAGCAUCA
B15: chr17:16285543:16285544:+_ENSG00000170315_ENST00000577640|hu_hu|FALSE|FALSE (ssRNA)
RNA: GGGAGUUCUACAGUCCGACGAUCCAGCUGCUUGCCUGCAAAGAUGAGCCUCUGCUGGUCGGGAGGGAUGCCUUCUUUAUCCUGGAUCUUGGCCUUCACAUUUUCGAUGGUGUCACUGGGCUCCACUUCCAGGGUGAUGGUCUUCAACAGAGGAUUGAGCAUCA
B16: chr7:75932113:75932114:+_ENSG00000106211_ENST00000248553|hu_hu|hu_hu_hu_mus_False|28_58 (ssRNA)
RNA: GGGAGUUCUACAGUCCGACGAUCCUGCGACCACUCAUCGGGCAACCGGGGCACCCCGAAAGCUUGAUCGAAGAGGCGGCUAUGCGGAGGGUACCAGUCCCGGAAUGCCCAGCUGGGCGGGCUCCGCAGCAGCGAGAAGGGCACCAACAGAGGAUUGAGCAUCA
B17: chr15:63448706:63448707:-_ENSG00000185088_ENST00000411926|hu_hu|motif|central (ssRNA)
RNA: GGGAGUUCUACAGUCCGACGAUCUGAUCUUGUAGCAACCUGGACAUUUUACAUCCAUAAAGUAAGAAUUUGGACUUUGUACGGGGCGUUUCUUUUUAUGUUUUUUCUUUUCCUCUUCCAAGGACGGAUGUAGUAAAUCUCUAGCAACAGAGGAUUGAGCAUCA
B18: chr17:88387627:88387628:+_ENSMUSG00000005370_ENSMUST00000005503|mus_mus|motif|central (ssRNA)
RNA: GGGAGUUCUACAGUCCGACGAUCAAAAUCGUCUCCAAAAAAAGUCUUUGUAAUGCAGGGAUGUCGUGACCCUUUAAACUCGGAGAAGGGAUGUGUGUCUUCUCCUGGUAACACAAUUUCUGGGCGACACAUAGGACCAUCUCCCAACAGAGGAUUGAGCAUCA
B19: 17782281_17793209_281_CDS_ENSG00000078674_ENST00000519253|human|control|control (ssRNA)
RNA: GGGAGUUCUACAGUCCGACGAUCGUUGAGCCUGUCAUCAACAUUCUCAUUACUCCAGUUUGGUAAAUCCUGAUCAUUCAUGCCAUCUUCAAAGGGACCUCCUCCUGUGGCCAUACUGGAUUUAACAAUUAACUCUCUGUUUAGCAACAGAGGAUUGAGCAUCA
B20: chr7:54825262:54825263:-_ENSG00000132432_ENST00000352861|hu_hu|hu_hu_hu_mus_False|1_48 (ssRNA)
RNA: GGGAGUUCUACAGUCCGACGAUCCUGCCGGCUGGGCUCCACAAACUGCAUUACCUGAUCCAUGUUUGUUGGAUGGCGGAUUGAGAGUGCCAGGGACCGUAGCUCAGGAGAGAACCGAGCCCAACGGAACCGGAAGCGGAAUCCCAACAGAGGAUUGAGCAUCA
B21: 100315748_100315868_169_5pUTR_ENSG00000162688_ENST00000361915|human|control|control (ssRNA)
RNA: GGGAGUUCUACAGUCCGACGAUCGCUGCCCAGCCUCGCACAGAAGCCGCAGCCCAAGGAGGGCCGGGCGCCGUGAAGGGCAAAGGGAGGGGCGGCGAGCGACCGGGGCAGCGCCGAGGCAGCUGGGUGAGAAGCAGGCAGAGUCAACAGAGGAUUGAGCAUCA
B22: chr1:167252050:167252051:+_ENSMUSG00000040836_ENSMUST00000111450|mus_mus|motif|central (ssRNA)
RNA: GGGAGUUCUACAGUCCGACGAUCGGAUACCAUUGAAGACAAGAGCCACAUGGUGGCUUCCCUUUCACAUCCACCAUCUCGGGUCCUCCUGAUGCCCCAGCCACAUCUCCAUCUGCUUCUAACGUGUGCUUUCGAAGCCUCGUUCAACAGAGGAUUGAGCAUCA

Some of the results follow.

The assay has as its target T1, UNK ZnF1-3. The experiment in a line: nsRBNS (natural sequence RNA bind-n-seq); RBNS binding buffer (assumed for nsRBNS): 25 mM Tris pH 7.5, 150 mM KCl, 3 mM MgCl2, 0.01% Triton X-100, 500 ug/ml BSA, 20 U/ml SUPERase-In, 4 C; UNK is unkempt and MSI1 is Musashi-1; names of the RNAs are library labels; protein concentration not given here; high values mean tight binding.
Take B1: the binding signal is 0.647 enrichment R.

Consider B2, for which the binding signal came to 2.05 enrichment R.

The molecule B3 showed a binding signal of 1.37 enrichment R.

Regarding B4, the binding signal worked out at 0.948 enrichment R.

Turning to B5, the binding signal came out at 1.03 enrichment R.

The molecule B6 registered a binding signal of 0.743 enrichment R.

Regarding B7, the binding signal amounted to 0.488 enrichment R.

B8 returned a binding signal of 0.706 enrichment R.

As to B9, the binding signal amounted to 0.94 enrichment R.

B10 yielded a binding signal of 0.614 enrichment R.

In turn, B11 came in with a binding signal of 0.854 enrichment R.

For B12, the binding signal was 0.629 enrichment R.

The molecule B13 displayed a binding signal of 0.686 enrichment R.

With B14, the binding signal was 2.04 enrichment R.

B15 had a binding signal of 0.691 enrichment R.

Regarding B16, the binding signal was found to be 0.553 enrichment R.

For the molecule B17, the binding signal was 0.947 enrichment R.

In turn, B18 displayed a binding signal of 0.635 enrichment R.

Consider B19, for which the binding signal was determined as 0.902 enrichment R.

The molecule B20 came in with a binding signal of 1.19 enrichment R.

Molecule B21 came in with a binding signal of 1.32 enrichment R.

B22 gave a binding signal of 0.721 enrichment R.
